This is an account of results in paper PMC6586819.

Chains of the proteins cited; added tags and fusions are not shown.
UniProt P58462: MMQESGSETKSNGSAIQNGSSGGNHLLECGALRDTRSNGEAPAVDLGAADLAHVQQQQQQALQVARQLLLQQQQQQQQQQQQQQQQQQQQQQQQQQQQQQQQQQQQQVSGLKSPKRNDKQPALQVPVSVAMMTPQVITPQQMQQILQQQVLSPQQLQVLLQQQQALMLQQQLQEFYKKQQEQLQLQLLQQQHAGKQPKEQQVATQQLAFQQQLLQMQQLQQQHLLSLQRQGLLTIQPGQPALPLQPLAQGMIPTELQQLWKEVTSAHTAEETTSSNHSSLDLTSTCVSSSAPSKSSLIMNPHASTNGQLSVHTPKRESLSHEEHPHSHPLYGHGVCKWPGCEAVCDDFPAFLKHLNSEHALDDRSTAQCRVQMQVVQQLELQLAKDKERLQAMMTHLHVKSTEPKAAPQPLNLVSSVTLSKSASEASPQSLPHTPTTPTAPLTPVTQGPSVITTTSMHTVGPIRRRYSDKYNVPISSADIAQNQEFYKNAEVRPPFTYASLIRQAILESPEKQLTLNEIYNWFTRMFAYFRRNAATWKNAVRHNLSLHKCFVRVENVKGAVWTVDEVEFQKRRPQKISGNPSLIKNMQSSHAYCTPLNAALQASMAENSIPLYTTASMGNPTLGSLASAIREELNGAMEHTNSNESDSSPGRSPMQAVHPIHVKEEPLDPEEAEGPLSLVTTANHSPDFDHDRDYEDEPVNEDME
UniProt O15409: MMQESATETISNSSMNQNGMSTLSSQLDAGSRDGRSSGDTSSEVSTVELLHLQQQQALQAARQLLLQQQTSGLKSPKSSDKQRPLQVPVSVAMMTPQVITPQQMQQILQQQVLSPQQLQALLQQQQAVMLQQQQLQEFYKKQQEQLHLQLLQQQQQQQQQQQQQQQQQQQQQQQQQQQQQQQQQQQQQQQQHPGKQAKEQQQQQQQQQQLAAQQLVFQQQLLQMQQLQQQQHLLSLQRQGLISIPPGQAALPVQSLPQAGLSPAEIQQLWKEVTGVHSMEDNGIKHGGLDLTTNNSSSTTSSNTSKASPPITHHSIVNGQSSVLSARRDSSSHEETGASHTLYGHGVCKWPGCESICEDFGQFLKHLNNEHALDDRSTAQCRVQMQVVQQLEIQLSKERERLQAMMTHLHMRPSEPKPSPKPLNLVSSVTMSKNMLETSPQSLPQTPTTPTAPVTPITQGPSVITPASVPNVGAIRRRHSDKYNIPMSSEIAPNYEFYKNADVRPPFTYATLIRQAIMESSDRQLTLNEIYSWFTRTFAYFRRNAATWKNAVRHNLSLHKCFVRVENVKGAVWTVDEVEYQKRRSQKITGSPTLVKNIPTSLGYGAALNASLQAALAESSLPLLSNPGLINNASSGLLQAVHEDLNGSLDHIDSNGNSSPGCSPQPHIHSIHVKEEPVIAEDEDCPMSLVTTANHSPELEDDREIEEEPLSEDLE

The target of one assay is Myc-CtBP2 (UniProt P56545). The experiment in a line: co-IP; U2OS cells transiently transfected; tagged CtBP1 or CtBP2 immunoprecipitated, protein G-sepharose, 4 °C; lysis buffer 20 mM Tris-HCl pH 7.5, 100 mM NaCl, 0.5% NP-40; without or with co-expressed MCRIP1 (increasing amounts of vector).
The target of assay [1] is endogenous Foxp1 (mouse lung) (mouse (endogenous in lung)) (UniProt P58462). The assay is described as follows: co-IP; lung lysates from Mcrip1-/- mice; endogenous Foxp1 immunoprecipitated, co-precipitated CtBP1 detected by immunoblotting. For orientation: A western blot detects proteins with antibodies after separation by electrophoresis.
The target is the same in assay [2]. The assay is described as follows: condition: only in lung lysates from Mcrip1+/+ mice (endogenous MCRIP1 present); co-IP; lung lysates from Mcrip1+/+ mice (MCRIP1 present); endogenous Foxp1 immunoprecipitated, CtBP1 probed by immunoblotting.

These are yes or no findings as the source states them, for the method shown. Binding seen in cells or lysates may run through a third protein. Some binding calls cover weakened binding; strength is not graded here. For some assays here: Where a sequence is shown, tags or fusion partners need not be part of it.

On to Flag-Foxp2 (from UniProt O15409 1-715), for which the binding entry with Myc-CtBP2 is “binds”.

Consider “endogenous CtBP1 (mouse lung) (from UniProt O88712 1-441)”, for which the values for the binding result in assay [1] and in assay [2] were “binds” and “no binding”, respectively.

B1: Flag-MCRIP1 (protein, UniProt C9JLW8 1-97)
chain: MTSSPVSRVVYNGKRTSSPRSPPSSSEIFTPAHEENVRFIYEAWQGVERDLRGQVPGGERGLVEEYVEKVPNPSLKTFKPIDLSDLKRRSTQDAKKS
With B1, the binding result with Myc-CtBP2 is “binds”.

B2: Flag-Foxp1 (protein, UniProt Q9H334 1-677)
chain: MMQESGTETKSNGSAIQNGSGGSNHLLECGGLREGRSNGETPAVDIGAADLAHAQQQQQQALQVARQLLLQQQQQQQVSGLKSPKRNDKQPALQVPVSVAMMTPQVITPQQMQQILQQQVLSPQQLQVLLQQQQALMLQQQQLQEFYKKQQEQLQLQLLQQQHAGKQPKEQQQVATQQLAFQQQLLQMQQLQQQHLLSLQRQGLLTIQPGQPALPLQPLAQGMIPTELQQLWKEVTSAHTAEETTGNNHSSLDLTTTCVSSSAPSKTSLIMNPHASTNGQLSVHTPKRESLSHEEHPHSHPLYGHGVCKWPGCEAVCEDFQSFLKHLNSEHALDDRSTAQCRVQMQVVQQLELQLAKDKERLQAMMTHLHVKSTEPKAAPQPLNLVSSVTLSKSASEASPQSLPHTPTTPTAPLTPVTQGPSVITTTSMHTVGPIRRRYSDKYNVPISSADIAQNQEFYKNAEVRPPFTYASLIRQAILESPEKQLTLNEIYNWFTRMFAYFRRNAATWKNAVRHNLSLHKCFVRVENVKGAVWTVDEVEFQKRRPQKISGNPSLIKNMQSSHAYCTPLNAALQASMAENSIPLYTTASMGNPTLGNLASAIREELNGAMEHTNSNESDSSPGRSPMQAVHPVHVKEEPLDPEEAEGPLSLVTTANHSPDFDHDRDYEDEPVNEDME
For the molecule B2, the binding entry with Myc-CtBP2 is given as “binds”.
